# Screen size: about 45,000 compounds; about 200 (0.44%) were called active. About 7% were inconclusive and are not listed. The call rests on the fitted dose curve; in most records, active means well fitted activation curve with a large enough effect; inconclusive means small, poorly fitted or top-dose-only effect; inactive means no such curve, though single readings can be large or run the other way. Some of the results follow.
# Test: qHTS of TDP-43 Inhibitors: NCGC Sytravon Library Screen; further: 0% is about no effect; nearly all actives have a fitted effect of over 55% in size
# Conditions: yeast TDP-43 toxicity rescue, BacTiter-Glo growth, 24 h; series mostly up to 46.1 µM; growth rescue (activation): at the top concentration
# Method in brief: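 TDP-43-expressing yeast, pregrown in raffinose, seeded at OD600 0.02 in galactose medium with compound for 24 hr at 30 deg C. Growth read by BacTiter-Glo luminescence, so rescue of toxicity appears as activation.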
row,Compound,growth rescue (activation)
1,O=C(COC(=O)c1ccc(Cl)nc1)NCc1ccc(F)cc1,inactive: 7.46%
2,O=C(COC(=O)Cn1cc(C(F)(F)F)ccc1=O)Nc1ccc(Br)cc1F,inactive: -5.86%
3,Cn1c(NC(=O)/C=C/c2ccc(Cl)c(Cl)c2)cc(=O)n(C)c1=O,inactive: 17.9%
4,C/C(=N\NC(=O)CCc1c[nH]c2ccccc12)c1cccc([N+](=O)[O-])c1,inactive: 8.47%
5,Cc1nc(C)n(CCNS(=O)(=O)c2ccc(C)c(C)c2)n1,inactive: 7.26%
6,O=C(NCCOc1ccccc1)C1=CC=CN2CCS(=O)(=O)N=C12,inactive: 14.1%
7,C/C(=N/NC(=O)c1nnn(-c2nonc2N)c1-c1ccccc1)c1ccncc1,inactive: -3.59%
8,O=C(CCN1C(=O)/C(=C/c2ccc3c(c2)OCO3)SC1=S)Nc1ccc(C(=O)O)cc1,inactive: 3.94%
9,CC(C(=O)c1ccc(-c2ccccc2)cc1)[n+]1cccc(Br)c1 (stereo not drawn),inactive: 20.2%
10,O=C(O)C1CCCN(C(=O)c2cccc3ccccc23)C1 (stereo not drawn),inactive: 0.79%
11,CCCCN(C)C1CCN(C(=S)Nc2ccc(OC)cc2)CC1,inactive: 7.83%
12,COc1ccc(Cc2nc3ccc(C(=O)N4CCC[C@H]4CO)cc3o2)cc1,inactive: -1.25%
13,Cc1cc(Oc2ccc(OCC(N)=O)nn2)nc(Cl)n1,inactive: 2.81%
14,CC(C(=O)O)n1cc(Cl)cn1 (stereo not drawn),inactive: -26.7%
15,CCn1c(SCC(=O)NNC(=O)c2ccc(C)cc2)nnc1C(C)C,inactive: -1.9%
16,COc1cc2[nH]c3c(=O)n(CCN4CCOCC4)cnc3c2cc1OC,inactive: -11.9%
17,CN(Cc1ccccc1)C(=O)CN1C(=O)c2ccc([N+](=O)[O-])cc2C1=O,inactive: -1.16%
18,Cc1cc(C)c(NC(=O)COC(=O)C2CCCO2)c(C)c1 (stereo not drawn),inactive: -1.97%
19,COc1cc(C(=O)N/N=c2/sc3ccccc3n2C)cc(OC)c1OC,inactive: 5.27%
20,Cc1c(O)ccc2c(=O)c(-c3nncn3-c3ccccc3)coc12,inactive: -1.96%
21,CSCC[C@H](NC(=O)NCCc1ccc(F)cc1)C(=O)O,inactive: 3.16%
22,Cc1cc(C)cc(OCC(=O)Nc2ccccc2C(=O)N2CCOCC2)c1,inactive: -1.39%
23,Cn1cnnc1SCC(=O)Nc1cc(S(=O)(=O)N2CCCCC2)ccc1Cl,inactive: 8.37%

row,Compound,growth rescue (activation)
1,Cc1ccc(NC(=O)Cn2cnc3cc([N+](=O)[O-])ccc3c2=O)c(Cl)c1,inactive: 11.7%
2,CCCC(C(=O)NCc1ccco1)N(CC1CCCO1)C(=O)CNS(=O)(=O)c1ccc(F)cc1 (stereo not drawn),inactive: 6.03%
3,CC(C)CNc1nc(NC(C)(C)C)nc(Oc2ccc(=O)[nH]n2)n1,inactive: 5.67%
4,Cc1cc2cccc(C)c2nc1SCC(=O)NC1CCCCC1,inactive: 10.8%
5,CCCCN(C)C(=O)Cn1nc(-c2ccc(Cl)cc2)ccc1=O,inactive: 1.09%
6,Cc1ccc(C)c(S(=O)(=O)Nc2ccccc2C(=O)Nc2ccc(S(=O)(=O)Nc3ncccn3)cc2)c1,inactive: -10.3%
7,COc1ccc(C(=O)NC(=S)NNC(=O)c2ccc(O)cc2)cc1[N+](=O)[O-],inactive: 22.5%
8,O=C(c1cc2ccc([N+](=O)[O-])cc2oc1=O)N1CCOCC1,inactive: 11.9%
9,CCSc1nnc2c(n1)OC(c1ccc(C)s1)Nc1ccccc1-2 (stereo not drawn),inactive: 9.59%
10,CC(C)(C)c1ccc(C(=O)Nc2sc3c(c2C(=O)O)CCC3)cc1,inactive: 6.04%
11,CCN(c1ccccc1)S(=O)(=O)c1ccc(OC)c(NC(=O)c2ccc(=O)[nH]c2)c1,inactive: -18.2%
12,COc1ccc(CNC(=O)CN(CCC(C)C)S(=O)(=O)c2ccc3c(c2)OCCO3)cc1,inactive: 27.4%
13,COc1ccc(C)cc1S(=O)(=O)N1CCN(C(=O)c2ncoc2-c2ccc(C)cc2)CC1,inactive: 17.2%
14,CCOC(=O)/C(=C/C=C1\Sc2cc(OCC)c(OCC)cc2N1CC)C(C)=O,inactive: 6.34%
15,CCC(=O)N=c1ccn(C2=Nc3ccccc3NC2=C(C#N)C#N)cc1,inactive: -8.5%
16,Cc1ccc(S(=O)(=O)N2CCOCC2)cc1C(=O)Nc1ccccc1F,inactive: 18.4%
17,CCNC(=S)N(CCc1ccc(OC)c(OC)c1)Cc1cc2cc(OC)ccc2[nH]c1=O,inactive: 6.24%
18,COc1ccc(CC(=O)Nc2nc(-c3ccc(OC)c(OC)c3)cs2)cc1OC,inactive: 20.5%
19,COc1cc(CC(=O)Nc2ccc(Cl)c(C(F)(F)F)c2)cc(OC)c1OC,inactive: 1.1%
20,O=C(Cn1c(=O)oc2cc(S(=O)(=O)N3CCCC3)ccc21)Nc1ccc(F)cc1F,inactive: 5.36%
21,CC(C)CCN(CC(=O)NCc1ccc(F)cc1)S(=O)(=O)c1ccccc1F,inactive: 9.34%
22,O=C(Cc1ccccc1[N+](=O)[O-])N1CCN(c2ccccc2F)CC1,inactive: 21.1%
23,Cc1cccc(CCN(C(=O)c2snc(C(N)=O)c2N)C(C(=O)NCC2CCCO2)c2ccc(F)cc2)c1 (stereo not drawn),inactive: 8.3%

row,Compound,growth rescue (activation)
1,Nc1nonc1-c1nc2ccccc2n1CC(=O)Nc1ccccc1,inactive: -4.46%
2,Cc1cc(=O)[nH]c(N/N=C/c2ccc(N(C)C)cc2)n1,inactive: -17.3%
3,CCOc1cc(Cl)c(S(=O)(=O)NCCCN2CCOCC2)cc1Cl,inactive: -8.89%
4,COc1ccc(CCNC(=O)CSc2n[nH]c(N)n2)cc1,inactive: -4.58%
5,O=Cc1c(Cl)nc2ccccn2c1=O,inactive: 0.242%
6,O=C1Nc2c(Br)cc(Br)c3cccc1c23,inactive: 3.59%
7,O=C(CCSCc1ccc(Cl)cc1)NCCC1=CCCCC1,inactive: 17.1%
8,O=C(Cc1ccccc1Cl)Nc1nc2ccccc2[nH]1,inactive: 7.77%
9,CCOC(=O)c1oc2cc(O)ccc2c(=O)c1-c1csc(C)n1,inactive: 3.74%
10,COc1cc(C(C)=O)ccc1OCC(O)CN1CCN(c2c(C)cccc2C)CC1 (stereo not drawn),inactive: -4.36%
11,COc1cc(NC(=O)c2ccccc2[N+](=O)[O-])c(C(=O)O)cc1OC,inactive: 6.91%
12,CC(C)c1cc(C(=O)NNC(=S)NCc2ccco2)c(O)c(C(C)C)c1,inactive: 33.4%
13,CC1(C)CC(N2CCC(=O)N(C3CC(C)(C)NC(C)(C)C3)C2)CC(C)(C)N1,inactive: 23.7%
14,CCOC(=O)N1CCN(C(=O)CCNS(=O)(=O)c2ccccc2)CC1,inactive: 13.4%
15,COc1ccc(/C(C)=N/NC(=O)CNC(=O)c2ccco2)cc1,inactive: 6.37%
16,COc1ccccc1NC(=O)COc1ccc(/C=N/NC(=O)CSCc2cc(C)cc(C)c2)cc1,inactive: 6.46%
17,Cc1ccc(C2(C)NC(=O)N(CC(=O)Nc3cccnc3Cl)C2=O)cc1 (stereo not drawn),inactive: -2.09%
18,O=C1Nc2ccc(F)cc2C12OCCO2,inactive: -21%
19,O=C(CCSCCc1ccccn1)Nc1ccc(Br)cc1F,inactive: 2.22%
20,O=C(Cc1n[nH]c(=O)c2ccccc12)OCc1c(Cl)cccc1Cl,inactive: -6.2%
21,CCC(=O)NC(c1ccc(N(C)C)cc1)c1c(O)ccc2ccccc12 (stereo not drawn),inactive: 2.08%
22,COc1ccccc1N1Cc2ccc(OC)c(OC)c2C1=O,inactive: -9.45%

# Source: PubChem BioAssay AID1347073 (National Center for Advancing Translational Sciences (NCATS), 2019)
